According to PubChem BioAssay AID2100 (National Center for Advancing Translational Sciences (NCATS), 2009):
Several values for one entry are separate records, joined by “and”; a condition that tells them apart may be missing. Equal values may be shown once. The whole screen tested about 300,000 compounds, of which about 1,200 (0.4%) were called active. Inconclusive means that the source gave no clear call. Such entries were picked first, then a sample of the others. Calls come from the whole dose curve; as a rule, active = well fitted inhibition curve with a large enough effect; inconclusive = small, poorly fitted or top-dose-only effect, or another doubt; inactive = no such curve, though single readings can be large or run the other way. A potency beside an inconclusive call is a rough fit, not a confirmed value.

target: Lysosomal alpha-glucosidase (Homo sapiens) (UniProt P10253); assay: qHTS Assay for Inhibitors and Activators of Human alpha-Glucosidase Cleavage of Glycogen; conditions: recombinant GAA, glycogen substrate, Amplex Red glucose oxidase fluorescence; series mostly up to 76.4 µM
Method in brief: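 Recombinant human alpha-glucosidase (4 nM final) hydrolysed bovine liver glycogen (30 ug) for 40 min at 37 C in pH 5.0 citrate/phosphate with 0.01% Tween-20. Released glucose detected by glucose oxidase/Amplex Red, Ex 573/Em 610 nm. Compounds up to 77 uM; AC50 from Hill fits.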
Potency is the fitted concentration of half-maximal effect.

Row | SMILES | Potency
1 | CC1(C)C([N+](=O)[O-])C(c2ccc(F)cc2)NC(c2ccc(F)cc2)C1[N+](=O)[O-] (centres undefined) | inactive
2 | CNC(=S)NNC(=O)Cn1ccc(C)n1 | inconclusive: 28 µM [inhibitor, single point]
3 | COc1ccc(N2CCN(C(=O)c3ccncc3)CC2)cc1 | inconclusive: 17.6 µM [activator, partial curve]
4 | Cc1ccc(Cl)cc1NC(=O)N1CCC(CN2CCCCCC2)CC1 | inactive
5 | CCN(CC)c1ccc(/C=N/NC(=O)Nc2ccccc2)cc1 | inconclusive: 31.6 µM [inhibitor, partial curve]
6 | O=C(C1COc2ccccc2O1)N1CCn2c(nc3ccccc32)C1 (centres undefined) | inconclusive: 112 µM [inhibitor, partial curve, poor fit]
7 | COc1ccc(C(=O)N2CCN(c3c(C)cccc3C)CC2)cc1OC | inconclusive: 31.6 µM [activator, single point]
8 | CN1CCC(=NNC(=O)C(=O)Nc2ccc(F)cc2)CC1 | inconclusive: 31.6 µM [inhibitor, single point]
9 | Cc1ccc(O)c(NC(=O)c2noc3c2CCCC3)c1 | inconclusive: 25.1 µM [inhibitor, partial curve]
10 | O=C(O)CC1=C(O)C(=O)N(c2ccccc2)C1c1ccc(Cl)cc1 (centres undefined) | inconclusive: 17.6 µM [inhibitor, partial curve]
11 | Cc1ccc(CNC(=O)Nc2cccs2)cc1 | active: 28.2 µM
12 | O=C(/C=C\Nc1ccc2c(c1)OCO2)c1cccs1 | inconclusive: 39.5 µM [inhibitor, single point]
13 | Cc1nnc(N/N=C/c2ccccc2F)n1N | inconclusive: 50.1 µM [inhibitor, single point]
14 | CC(C)Nc1nc(NC(C)C)nc(N(C)C(N)=O)n1 | inactive
15 | COc1ccc(C2C3(C#N)C(N)=NC(OC)(OC)C23C#N)cc1 (centres undefined) | inconclusive: 24.9 µM [inhibitor, partial curve]
16 | COC(=O)c1ccccc1NC(=O)c1sc(N)nc1C | inconclusive: 7.94 µM [inhibitor, partial curve]
17 | O=C(Oc1ccc(O)cc1)C12CC3CC(CC(C3)C1)C2 | inconclusive: 20 µM [inhibitor, partial curve]
18 | Cc1ccc(Nc2nc(=O)c3cccnc3s2)cc1 | inactive
19 | Cc1c(O)ccc(/C(Cc2ccc3ccccc3n2)=N\N)c1O | inconclusive: 35.5 µM [inhibitor, single point]
20 | Brc1ccc(-c2nc3ccccn3c2Nc2ccc3c(c2)OCCO3)o1 | inconclusive: 7.94 µM [inhibitor, full curve]
21 | CC1=[N+]([O-])C(C)(C)N(O)C1(C)C | inconclusive: 22.4 µM [inhibitor, partial curve]
22 | COc1ccc(C(=O)NNC(=O)CSc2nnc(-c3ccc(O)cc3)n2C)cc1 | inactive
23 | CN(C)S(=O)(=O)c1cc(NC(=O)CN2CCN(c3ccc(O)cc3)CC2)ccc1Cl | active: 7.08 µM

Row | SMILES | Potency
24 | Cc1cccc(-n2cc(-c3ccccc3)c3c(NN4CCOCC4)ncnc32)c1 | inconclusive: 7.08 µM [inhibitor, full curve]
25 | O=[N+]([O-])c1cccc(-c2csc(N/N=C/c3cccc(O)c3)n2)c1 | inconclusive: 31.4 µM [inhibitor, single point]
26 | COc1cc(CNc2ccc(N3CCCC3)cc2)ccc1OCc1ccccc1F | inconclusive: 6.31 µM [activator, partial curve]
27 | CCc1cccc(C)c1Nc1c(-c2ccccc2)nc2sccn12 | inconclusive: 35.5 µM [inhibitor, partial curve]
28 | O=c1cc(-c2ccccc2Cl)oc2c(NS(=O)(=O)c3cc(Cl)cc(Cl)c3O)ccc(O)c12 | inconclusive: 28.2 µM [inhibitor, partial curve]
29 | COc1ccc(O)c(C(c2c(C)[nH][nH]c2=O)c2c(C)[nH][nH]c2=O)c1 | inconclusive: 28.2 µM [inhibitor, partial curve]
30 | CN(Cc1c(C(=O)N/N=C/c2ccccc2)nnn1-c1nonc1N)C1CCCCC1 | inconclusive: 50.1 µM [inhibitor, single point]
31 | CCOC(=O)c1c(C)oc(/N=C/c2ccccc2O)c1C#N | inconclusive: 24.9 µM [inhibitor, partial curve]
32 | Cc1ccc(NC(=O)c2cc(N3C(=O)C=CC3=O)ccc2Cl)cc1C | inactive
33 | CCOC(=O)/C=C1\Nc2ccccc2OC1=O | inconclusive: 22.4 µM [inhibitor, partial curve]
34 | O=S(=O)(Nc1ccc(O)c(Sc2nc3ccccc3s2)c1)c1ccc(F)cc1 | inconclusive: 17.6 µM [inhibitor, partial curve]
35 | CCOC(=O)c1oc2ccc(S(=O)(=O)n3nc(-c4cc(OC)c(OC)c(OC)c4)cc3N)cc2c1C | inconclusive: 10 µM [inhibitor, partial curve] and inconclusive: 39.8 µM [inhibitor, single point]
36 | CCOc1ccc(Nc2ncnc3c2nc2n3CCCC2)cc1 | inconclusive: 11.2 µM [inhibitor, single point]
37 | Cc1ccc(N(C)C(=O)N2CCN(S(=O)(=O)c3ccc(C)cc3)CC2)cc1 | inactive
38 | C/C(=N\Nc1nccnc1Cl)c1ccc(O)c(C)c1 | inconclusive: 31.6 µM [inhibitor, partial curve]
39 | Oc1ccccc1/C=N/Nc1cc(N2CCCC2)nc(N2CCCC2)n1 | inconclusive: 28.2 µM [inhibitor, partial curve]
40 | COc1ccc(C(=O)CCNc2ccc(F)cc2)cc1 | inactive
41 | COc1ccc(CNC(=O)c2cc(-c3cc(C)cc(C)c3O)n[nH]2)cc1 | inconclusive: 50.1 µM [inhibitor, single point]
42 | O=C(CN1C(=O)C2CC=CCC2C1=O)Nc1ccc(S(=O)(=O)N2CCOCC2)cc1 (centres undefined) | inactive
43 | Cc1ccsc1C=Nc1c(C)n(C)n(-c2ccccc2)c1=O | active: 3.14 µM
44 | NC(CO)C(=O)NNCc1ccc(O)c(O)c1O (centres undefined) | inconclusive: 3.14 µM [inhibitor, single point]
45 | Cn1c(=O)c2c(=O)cc(NNC(=O)CC#N)[nH]c2n(C)c1=O | inconclusive: 3.95 µM [inhibitor, full curve]
46 | CCOC(=O)C1=C(c2ccccc2)NC(N)=NC1c1ccc(OCc2ccc(Cl)cc2)c(OC)c1 (centres undefined) | inactive

Row | SMILES | Potency
47 | CC(=O)Oc1cc2cccc(OC(C)=O)c(=O)c2c(OC(C)=O)c1OC(C)=O | inconclusive: 12.6 µM [inhibitor, partial curve]
48 | CCOc1cc(/C=N/Nc2nc3ccccc3[nH]2)cc(Br)c1OCC(=O)N(C)C | inconclusive: 28.2 µM [inhibitor, single point]
49 | CC(=O)Nc1ccc(S(=O)(=O)NNC(=O)c2ccc(S(=O)(=O)N3CCCCC3)cc2)cc1 | inconclusive: 22.2 µM [inhibitor, partial curve]
50 | C=CCc1c(C)nc(C)nc1N/N=C/c1ccccc1 | inconclusive: 28.2 µM [inhibitor, partial curve]
51 | CCOC(=O)c1c(C)[nH]c(C)c1C(=O)COC(=O)c1cc(OC)c(OC)cc1OC | inconclusive: 39.8 µM [inhibitor, single point]
52 | CCCN1C(=S)c2ccccc2C1c1ccccc1 (centres undefined) | inconclusive: 12.6 µM [inhibitor, partial curve]
53 | C=CCn1c(SCC(=O)NCc2ccc3c(c2)OCO3)nnc1-c1cccnc1 | inconclusive: 6.31 µM [inhibitor, single point]
54 | COc1ccccc1N1CCN(/N=C/c2cc(OC)c(O)c(OC)c2)CC1 | inconclusive: 9.92 µM [inhibitor, partial curve]
55 | COc1cc(/C=C2\SC(=S)N(NS(=O)(=O)c3ccc(C)cc3)C2=O)ccc1O | inconclusive: 39.5 µM [inhibitor, partial curve]
56 | Cc1onc(-c2ccccc2)c1-c1csc(N/N=C/c2ccccc2Cl)n1 | inconclusive: 50.1 µM [inhibitor, single point]
57 | CCCCOc1ccccc1CC1C(=O)Nc2ccc(Br)cc21 (centres undefined) | inactive
58 | C(=N\Nc1ccc2ccccc2n1)/c1ccc2c(c1)OCO2 | inconclusive: 6.26 µM [inhibitor, full curve]
59 | Cc1[nH][nH]c(=O)c1C(c1c(C)[nH][nH]c1=O)c1cn(Cc2ccc(F)cc2)c2ccccc12 | inactive
60 | CN(C(=O)Nc1ccccc1)C1CCS(=O)(=O)C1 (centres undefined) | inactive
61 | Cc1ccc(/C=C/C(=O)NCc2ccc(S(N)(=O)=O)cc2)o1 | inconclusive: 25.1 µM [inhibitor, partial curve]
62 | CCOC(=O)C1CCCN(C2=C(NS(=O)(=O)c3ccc(Br)cc3)C(=O)c3ccccc3C2=O)C1 (centres undefined) | inactive
63 | CCCc1cc(=O)[nH]c(SCC(=O)NCc2ccc3c(c2)OCO3)n1 | inactive
64 | CC(=O)N1CCN(c2ccc(NCc3ccc(C(C)C)cc3)cc2)CC1 | active: 31.6 µM
65 | O=CN/C=C/c1cc(O)ccc1O | inconclusive: 22.4 µM [inhibitor, partial curve]
66 | COc1ccccc1N1C(=O)Cc2ccccc2C1=O | inconclusive: 50.1 µM [inhibitor, single point]
67 | Cc1ccccc1OCc1ccc(-c2nc(C#N)c(NCc3cccnc3)o2)o1 | inconclusive: 5.62 µM [inhibitor, full curve]
68 | CCc1ccc(C(=O)c2cn(CC(=O)Nc3ccc4c(c3)OCO4)c3ccc(OC)cc3c2=O)cc1 | inactive
69 | COc1ccc(Nc2oc(-c3ccco3)nc2S(=O)(=O)c2ccc(F)cc2)cc1 | inconclusive: 50.1 µM [inhibitor, single point]
